Laboratory results reported in PubChem BioAssay AID662 (National Center for Advancing Translational Sciences (NCATS), 2007).
The campaign covered roughly 71,000 compounds. About 1,800 (2.5%) were called active. The inconclusive results got no clear call from the source; some entries with a clear call stand among them for comparison. Calls come from the whole dose curve; as a rule, active = well fitted activation curve with a large enough effect in the signal ratio, with a control signal flat (not every such curve was filed as active); inconclusive = small, poorly fitted or top-dose-only effect, or effect the other way, or a change in a side signal; inactive = flat fitted curve, though single readings scatter; the % refers to the signal ratio. Where the call is inconclusive, the potency comes from a doubtful curve fit.

Experiment: Cell signaling CRE-BLA (Fsk stim); for activity change, negative = inhibition: % of control where 0% means no effect
Details: CHO CRE-bla reporter (cAMP response element driving beta-lactamase), forskolin EC10, beta-lactamase ratio; activity change, negative = inhibition: at 38.2 µM (top of the series) unless noted
Summary of the method: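 Forskolin analogue NKH 477 at EC10 stimulated CRE-driven beta-lactamase in CHO cells alongside compound dilution series. Beta-lactamase was measured with CCF4, excitation 405 nm, emission ratio 460/530 nm.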
Potency is the fitted concentration of half-maximal effect; tags give direction and shape of the fitted curve.

SMILES	Potency	activity change, negative = inhibition
CCC(C)Nc1nc2c(c(=O)[nH]c(=O)n2C)n1CCC(C)C (stereo not given)	active: 10 µM	
CC1Cc2ccccc2N1C(=O)CSc1nc2c(c(=O)n(C)c(=O)n2C)n1Cc1ccccc1 (stereo not given)		inconclusive: 23.9%
CCOC(=O)c1cccc2c1-c1ccccc1/C2=N/O	inconclusive: 6.31 µM [falling, partial curve]	
Cc1cc(N)n(-c2nc(-c3cccnc3)nc3ccccc23)n1	active: 7.94 µM	
CC(=O)N1CCC2(CCCN(Cc3nccs3)C2)CC1		inactive
Cn1c2c(c(=O)n(C)c1=O)C(CC(=O)Nc1ccccc1)C(=O)N2 (stereo not given)		inactive
COc1ccccc1-c1nc(Nc2ccncc2)c2ccccc2n1		inconclusive: 20.9%
O=C(O)/C=C\C(=O)Nc1ccc2c(c1)C(=O)c1cc(F)ccc1-2		inactive: 1.29% [at 7.6 µM]
CC(=O)n1nc(-c2ccco2)nc1N		inconclusive: 20.6%
N#Cc1c2n(c3c(=O)n(Cc4ccc(Cl)cc4)cnc13)CCCC2	active: 10 µM	
O=C(NCCOC(=O)c1ccncc1)c1ccccc1		inactive
COC(=O)c1ccccc1NC(=O)CSc1nc(NC(=O)c2ccccc2)c2c(C)c(C)oc2n1	inconclusive: 3.16 µM [rising, partial curve]	
CC(=O)Nc1nc2ncc(C=O)nc2c(=O)[nH]1		inconclusive: -4.44% [at 7.6 µM]
Cc1ccccc1S(=O)(=O)Cc1ccc(C(=O)NCCCOC(C)C)o1		inconclusive: 17.3%
c1ccc(-c2noc(-c3cccnc3)n2)cc1	inconclusive: 3.16 µM [rising, partial curve, poor fit]	
CCOC(=O)C1CCN(S(=O)(=O)c2cnc[nH]2)CC1		inactive
COc1ccc(NC(=O)CC(NCCc2ccccc2)C(=O)O)c(OC)c1 (stereo not given)	inconclusive: 10 µM [falling, partial curve]	
O=c1c(-c2ccc(Cl)cc2)nc2cnc(N3CCOCC3)nc2n1C[C@H]1CCCO1	active: 0.794 µM	
CCCCCCCCCCCCC(=O)N1CCCC[C@H]1CNC(=O)[C@@H](N)CCCCN		inactive
CCOC(=O)Cn1c(C(F)(F)F)nc2nc(Cl)c(Cl)nc21		inactive: 6.97% [at 7.6 µM]
COc1ccccc1N(C(=O)c1snc(C(N)=O)c1N)C(C(=O)NCCC(C)C)c1ccco1 (stereo not given)		inactive
Cn1c2ccccc2c2nnc(SCc3ccc4nonc4c3)nc21		inconclusive: 20.6%
COc1ccc(N2CCN(S(=O)(=O)c3ccc(OC)cc3)CC2)cc1		inconclusive: 11.7% [at 7.6 µM]
CSc1nsc(SC)c1C(=O)OCC(F)(F)F	inconclusive: 12.6 µM [rising, partial curve]	
N#C/C(C(=O)c1ccccc1)=C1/CCCN1		inconclusive: -8.48% [at 7.6 µM]
CCOc1ccc2nc(-c3ccc(OC)c(OC)c3)cc(C(=O)O)c2c1		inconclusive: 27%
Cc1cccc(NC(=O)c2cc3ccccc3o2)c1		inactive
CN(Cc1ccccc1)Cc1nc2c(c(=O)n(C)c(=O)n2C)n1Cc1ccc(Cl)cc1		inconclusive: 13.8%

SMILES	Potency	activity change, negative = inhibition
O=C(c1cnccn1)N1CCC2(CC1)CCN(c1ccncc1)CC2		inactive
C[N+](C)(C)CCCSc1nc2ccccc2[nH]1		inactive: -0.885% [at 7.6 µM]
COc1ccc(-c2noc(CCC(=O)Nc3nc4ccccc4s3)n2)cc1		inactive
O=C(O)COc1ccc2nsnc2c1Cl		inactive
CCSc1nc2ccccc2n1CC(=O)N1CCOCC1		inactive
COc1ccccc1-c1nnc2sc(-c3ccc(N(C)C)cc3)nn12	active: 0.398 µM	
O=C(c1ccc(S(=O)(=O)N2CCCCC2)cc1)N1CCN(c2ccccc2)CC1		inactive
O=C(NCCN1CCN(c2ccccc2)CC1)c1cccc(Br)c1	inconclusive: 12.6 µM [falling, partial curve]	
N#CCc1ccc(NC(=O)Nc2cccc(Cl)c2)cc1	inconclusive: 25.1 µM [rising, single point]	
O=C(CSC1=NCCS1)Nc1ccnc2ccccc12		inactive
C1=C(N2CCOCC2)/C(=C/c2nc3ccccc3[nH]2)CC1	inconclusive: 0.02 µM [rising, partial curve]	
CCC/C=C(\CCC)C(NC(=O)OCC(C)C)c1ccc(C(=O)OC)cc1 (stereo not given)		inconclusive: 13.6%
COCCn1c(=O)c(-c2ccc(F)cc2)nc2cnc(N3CCOCC3)nc21	active: 2 µM	
CCCCCCn1c(SCCC)nc2c1c(=O)[nH]c(=O)n2C		inactive
Cn1c(=O)c(-c2ccc(Cl)cc2)nc2cnc(N3CCOCC3)nc21	inconclusive: 2.51 µM [rising, partial curve]	
CCOC(=O)CNC(=O)CSc1nc(N)cc(N)n1		inconclusive: 21.3% [cytotoxic]
COc1ccc(NC(=O)Nc2nccs2)cc1		inactive
O=C(c1cc2c(=O)n3ccccc3nc2s1)N1CCOCC1	inconclusive: 12.6 µM [rising, partial curve]	
COc1cc2cc(C)c(SCC(=O)N3CCOCC3)nc2cc1OC	inconclusive: 10 µM [rising, partial curve]	
Cc1ccc(-c2nnn(CC(=O)N(Cc3ccccc3)C(C(=O)NC(C)(C)C)c3ccncc3)n2)o1 (stereo not given)		inactive
O=C1NC(c2ccco2)Nc2sc3c(c21)CCN(Cc1ccccc1)C3 (stereo not given)	active: 3.16 µM	
COc1ccc(OC)c(C2C3CN(C(C)C)CC=C3C(C#N)=C(N)C2(C#N)C#N)c1 (stereo not given)	inconclusive: 10 µM [rising, single point]	
Cc1nc2ccccc2c(=O)n1/N=C/c1ccc(N(C)C)cc1		inconclusive: 17.3%
CCCCC[C@H](O)CCCC(=O)O		inconclusive: 0.236%
CCN1CCN(C(c2ccccc2OC)c2nnnn2C2CCCCC2)CC1 (stereo not given)		inconclusive: -3.27%
C/C(Cl)=C/Cn1c(=O)c2c(nc(Br)n2Cc2ccccc2)n(C)c1=O	inconclusive: 10 µM [rising, single point]	
Cn1c(=O)c2c(nc(SCCN3CCOCC3)n2Cc2cccc3ccccc23)n(C)c1=O	inconclusive: 12.6 µM [rising, single point]	
